The full ranking holds about 110,000 compounds; the median of “z-score” is about -0.1, and the highest 2% start at about 2. This is one part of the list. Activity calls are given as the source filed them.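 The calls were made as follows: active = z-score in the third read window above 3 or below -3; inactive = the rest.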
target: Metabotropic glutamate receptor 8 (Rattus norvegicus) (UniProt P70579); assay: mGluR8 Gi/Go-coupled signaling modulation – cell-based, rat, thallium flux, HTS, primary screen (AID 488969); settings: HEK293 rat mGluR8, GIRK (G protein-gated inwardly rectifying potassium channel) thallium flux, FluoZin2; at 10 µM; stronger effect = higher value; submaximal glutamate (EC20) added with thallium
UniProt P70579, sequence (P70579 whole entry, looked up): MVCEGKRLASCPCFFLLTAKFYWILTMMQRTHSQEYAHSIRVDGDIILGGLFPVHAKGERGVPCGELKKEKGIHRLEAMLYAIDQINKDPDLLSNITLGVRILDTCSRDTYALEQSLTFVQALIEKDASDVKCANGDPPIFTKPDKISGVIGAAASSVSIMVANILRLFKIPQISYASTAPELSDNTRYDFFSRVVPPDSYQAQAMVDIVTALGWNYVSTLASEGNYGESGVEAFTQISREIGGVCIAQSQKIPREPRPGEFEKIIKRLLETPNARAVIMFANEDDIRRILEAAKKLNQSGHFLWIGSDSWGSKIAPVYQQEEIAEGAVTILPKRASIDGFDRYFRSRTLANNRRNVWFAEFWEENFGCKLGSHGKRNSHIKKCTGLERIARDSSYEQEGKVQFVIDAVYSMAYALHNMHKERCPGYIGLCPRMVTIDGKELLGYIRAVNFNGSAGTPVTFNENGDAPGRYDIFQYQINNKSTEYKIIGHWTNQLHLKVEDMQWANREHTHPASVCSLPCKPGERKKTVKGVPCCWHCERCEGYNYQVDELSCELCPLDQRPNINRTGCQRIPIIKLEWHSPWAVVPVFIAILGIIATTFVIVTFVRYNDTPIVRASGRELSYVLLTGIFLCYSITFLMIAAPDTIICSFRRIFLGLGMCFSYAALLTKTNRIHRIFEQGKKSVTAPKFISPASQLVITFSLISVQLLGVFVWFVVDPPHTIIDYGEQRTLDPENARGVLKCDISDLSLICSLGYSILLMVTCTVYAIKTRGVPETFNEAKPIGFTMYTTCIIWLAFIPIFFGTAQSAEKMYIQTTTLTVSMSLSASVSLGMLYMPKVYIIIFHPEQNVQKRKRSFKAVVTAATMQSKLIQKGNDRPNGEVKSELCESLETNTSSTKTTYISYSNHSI

Structure (SMILES)	z-score
COC(=O)c1[nH]c2cc(OC)c(OC)cc2c1NC(=O)c1cccc(OC)c1	0.269
Cc1ccc(S(=O)(=O)/N=C2/NC(=O)/C(=C/c3ccncc3)S2)cc1	-0.504
Cc1ccc2c(c1)C(c1ccncc1)=NNC(c1ccc(C(C)C)cc1)=N2	0.622
CCNC(=O)CC1C(=O)N(c2ccc(C)cc2)C(=O)N1CCc1ccc(OC)c(OC)c1 (stereo not given)	0.0518
Cc1cc(N2C(=O)C(=O)/C(=C(/O)c3ccc(Cl)cc3)C2c2cccc(Br)c2)no1 (stereo not given)	-0.652
O=C(c1noc2c1CCCC2)N1CCOCC1	-0.189
Cc1cc(C)c2c(n1)sc1c(N3CCN(CCO)CC3)ncnc12	-0.0957
CN1C(=O)C(c2nnc(Nc3cccc4ccccc34)s2)C2CC1(C)Oc1ccccc12 (stereo not given)	-0.206
Cn1c(=NC(=O)c2ccccc2[N+](=O)[O-])sc2cc(S(C)(=O)=O)ccc21	-0.0581
Cc1ccc(OCC(O)Cn2c3ccccc3c3ccccc32)cc1 (stereo not given)	-0.222
Cc1cc(N)n(-c2ncnc3scc(-c4ccccc4)c23)n1	0.373
CC(C)(C)c1ccc(S(=O)(=O)NCC(=O)Nc2ccc(-c3nc4ccccc4s3)cc2)cc1	-0.0736
Fc1ccc2nc(-c3ccccc3)nc(SCc3nnc(-c4ccccc4)o3)c2c1	active: 14.3
COCc1cc(C)nc2sc(C(=O)Nc3nccs3)c(N)c12	0.558
NS(=O)(=O)c1ccc(NCc2ccccc2OCc2ccc(F)cc2)cc1	-0.691
CCOc1cc(C(=O)Nc2cccc3ncccc23)cc(OCC)c1OCC	-0.0792
Cc1cc(OC(=O)N2CCOCC2)cc(C)c1Cl	0.692
O=C(NC1CCCCC1)c1cccnc1C(=O)O	0.678
NC(=O)C1CCN(C(=O)CN2CCCc3ccccc32)CC1	-0.124
COc1cc([N+](=O)[O-])ccc1NC(=O)CCCOc1cccc(C)c1C	-0.06
COc1ccc(OC)c(Nc2nc(-c3sc(NC(=O)C(C)(C)C)nc3C)cs2)c1	-0.237
Cc1cc(C#N)c(C)n1-c1cc(S(=O)(=O)N2CCOCC2)ccc1N1CCCC1	0.38

Structure (SMILES)	z-score
Cc1cc(C)n(C(=O)CCNC(=O)c2ccccc2Br)n1	-0.384
COCCCn1c(SCC(=O)NC(C)(C)C)nnc1-c1ccccc1	0.863
Clc1ccc(C(c2nnnn2C2CCCC2)N2CCN(c3nc4ccccc4s3)CC2)cc1 (stereo not given)	-0.252
Nc1scc2c(C(=O)N/N=C/c3ccc(Cl)cc3)nn(-c3ccccc3)c(=O)c12	-0.086
CCC(c1nnc(SCc2nc3ccccc3s2)n1Cc1ccccc1)N(C)C (stereo not given)	-1.18
COc1cc(S(=O)(=O)n2c(C)nc3ccccc32)ccc1F	0.0756
O=C(Nc1ccccc1Cl)c1cccc(COc2cc(Cl)ccc2Cl)c1	-0.0327
O=C(O)c1cccnc1Sc1ccccc1	0.0247
CN(C)c1ccc(/C=N/NC(=O)CN2CCN(c3ccc(F)cc3)CC2)cc1	-0.219
C/C(Cn1nc([N+](=O)[O-])cc1C)=N\NC(=O)c1ccc(C(C)(C)C)cc1	-0.0524
COc1nc(OC)nc(N2CCC(NC(=O)C(Cc3ccc(C(C)C)cc3)NC(C)=O)CC2)n1 (stereo not given)	-0.492
COC(=O)c1ccc(C2/C(=C(\O)c3ccc4c(c3)OCCO4)C(=O)C(=O)N2CCCN(C)C)cc1 (stereo not given)	-0.191
Cc1ccc(S(=O)(=O)n2cnc3cc([N+](=O)[O-])ccc32)cc1C	2.81
C/C(=N\Nc1cc(-c2ccccc2)nc(-c2ccc(Br)cc2)n1)c1cccc(N)c1	-0.0597
COc1ccc(-n2c(CSc3nc(C)cc(C)n3)nnc2SCC(=O)Nc2nccs2)cc1	0.17
COc1cc2c(cc1OC)C(c1ccc(-c3ccc(Cl)c(Cl)c3)o1)=NCC2	0.559
COc1ccccc1CNc1ccc(N2CCCCC2)cc1	-0.109
COc1ccccc1NC(=O)CCNC(=O)Cn1ccc2ccccc2c1=O	0.17
Cc1ccc(/C(O)=C2/C(=O)C(=O)N(CCN3CCOCC3)C2c2ccccn2)cc1 (stereo not given)	-0.0547
CC1(c2ccccc2)NC(=O)N(CC(=O)Nc2ccc3c(c2)OCO3)C1=O (stereo not given)	0.061
CCOC(=O)[C@@H]1C(c2c(OC)cc(OC)cc2OC)=NO[C@@H]1C(=O)OCC	-0.405
CCCCOc1ccc(C(=O)N/N=C/c2ccc(OCCN3CCCCC3)c(OC)c2)cc1	-0.0807

Structure (SMILES)	z-score
COC(=O)C1C(=O)/C(=C(/C)N2CCCC2)C(=O)CC1(C)C (stereo not given)	-0.0556
N#C/C(=C\c1ccc(N2CCCC2)c([N+](=O)[O-])c1)c1nc2ccccc2[nH]1	0.221
C#CCN(N(C)c1ncc(C(F)(F)F)cc1Cl)S(=O)(=O)c1ccc2ccccc2c1	0.398
O=C(O)C12C[C@H]3C[C@@H](C1)CC(n1ncc(N4CCN(c5ccccc5)CC4)c(Cl)c1=O)(C3)C2	-0.544
Nc1ccc(C(=O)OCC(=O)Nc2cc([N+](=O)[O-])ccc2F)cc1	0.00777
CCOC(=O)/C(N=Nc1ccc(Cl)cc1)=C(/O)c1ccc([N+](=O)[O-])cc1	0.205
COc1ccc(OC)c(NC(=O)CSc2nc(N)c(-c3ccccc3)c(=O)[nH]2)c1	-0.434
CCOC(=O)N1CCN(C(=O)c2ccc(N3C(=O)CCC3=O)cc2)CC1	0.917
CCN(CC)S(=O)(=O)c1cc(C(=O)Oc2cccc(-c3cnc4ccccc4n3)c2)ccc1Br	-0.242
O=C(Nc1nnc(-c2ccc3c(c2)CCCC3)o1)C1COc2ccccc2O1 (stereo not given)	active: 7.22
CCN(CC)C(=O)CSc1nc2ccccc2o1	-0.0356
CCN1C(=O)/C(=C/c2ccc(N3CCCC3)cc2)NC1=S	1.3
CCOc1ccc(Cn2nnc(C(=O)Nc3cc(OC)cc(OC)c3)c2N)cc1	0.25
Cc1nc2ccccc2c2oc(C(=O)NCc3ccc4c(c3)OCO4)cc12	-0.416
O=C(NC1CCCC1)C(c1ccccn1)N(C(=O)c1csnn1)C1CCCC1 (stereo not given)	0.0557
CC(CNC(=O)C(C)(C)C)NC(=O)C(C)(C)C (stereo not given)	0.657
COC(=O)C(NNc1ccccc1)(NC(=O)c1ccc(F)cc1)C(F)(F)F (stereo not given)	-0.175
c1ccc(CNc2ccc(CNc3ncn[nH]3)cc2)cc1	0.0226
O=C(NCc1ccccc1)c1cccc(S(=O)(=O)N2CCOCC2)c1	-0.267
Cc1ccc(NC(=O)Cc2ccc(-n3cccc3)cc2)c(C)c1	-0.223
O=C(NC(Cc1c[nH]c2ccccc12)C(=O)O)c1ccccc1 (stereo not given)	0.919

From PubChem BioAssay AID488969 (Vanderbilt High Throughput Screening Facility, 2010)
